To fix the notation:
B1: TEV protease; numbered along this chain (parent)
chain: MGESLFKGPRDYNPISSSICHLTNESDGHTTSLYGIGFGPFIITNKHLFRRNNGTLVVQSLHGVFKVKDTTTLQQHLVDGRDMIIIRMPKDFPPFPQKLKFREPQREERICLVTTNFQTKSMSSMVSDTSCTFPSGDGIFWKHWIQTKDGQCGSPLVSTRDGFIVGIHSASNFTNTNNYFTSVPKNFMELLTNQEAQQWVSGWRLNADSVLWGGHKVFMVKPEEPFQPVKEATQL

The variants in this assay derive from B1. The experiment in a line: raw area under fraction-flipped curve 0-4 h after induction (AUC4h, not background-subtracted), DNA-recorder readout of cleavage of the substrate (dimensionless); higher = more cleavage of the substrate by the protease variant. Conditions: temperature: 34 °C; time window: 0-4 h after rhamnose induction. On the procedure:
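In vivo DNA recorder in E. coli TOP10(DE3) ΔrhaA at 34 °C. Each TEVp single-site mutant (parent TEVp 0) is paired with a single-site variant of the 7-mer TEVs (canonical ENLYFQ|S). The substrate sits between flexible linkers in a Bxb1-sfGFP-TEVs-SsrA fusion, so cleavage stabilises Bxb1 and speeds flipping of a recombination array, read by NGS. The value is the raw area under the fraction-flipped curve over 0-4 h after rhamnose induction (AUC4h), with ≥20 reads per time point. It is not background-subtracted; inactive controls average about 0.047.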

The list shows a part of the results. Sequences were assembled here from the parent chain. Values near 0.05 are background.
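Note: Bxb1 expression induced with 0.2% (w/v) L-rhamnose at OD600 near 0.5, cultures sampled hourly, flipped fraction per protease–substrate barcode pair counted by paired-end Illumina sequencing.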

Take MGESLFKGPRDYNPISSSICHLTNESDGHTTSEYGIGFGPFIITNKHLFRRNNGTLVVQSLHGVFKVKDTTTLQQHLVDGRDMIIIRMPKDFPPFPQKLKFREPQREERICLVTTNFQTKSMSSMVSDTSCTFPSGDGIFWKHWIQTKDGQCGSPLVSTRDGFIVGIHSASNFTNTNNYFTSVPKNFMELLTNQEAQQWVSGWRLNADSVLWGGHKVFMVKPEEPFQPVKEATQL [L33E]: the “area with substrate ENLYFQA” value amounted to 0.0644, the “area with substrate ENLYFQC” value is 0.0935, the “area with substrate ENLYFQD” value was determined as 0.0087 and the “area with substrate ENLYFQG” value was found to be 0.0708. The “area with substrate ENLYFQK” value worked out at 0.0622, the “area with substrate ENLYFQN” value was 0.0663, the “area with substrate ENLYFQR” value is 0.0643 and the “area with substrate ENLYFQS” value came out at 0.0715. Further, the “area with substrate ENLYFQT” value was 0.0683, the “area with substrate ENLYFQV” value worked out at 0.0517 and the “area with substrate ENLYFQW” value was found to be 0.0623.

On to MGESLFKGPRDYNPISSSICHLTNESDGHTTSLYGIGFGPFIITNKHLFRRNNGTLVVQSLHGVFKVKDTTTLQQHLVDGRDMIIIRMPKDFPPFPQKLKFREPQREERICLVTTNFQTKSMSSMVSDTSCTFPSGDGIFWKHWIQTKDGQCGSPLVSTRDGFIVGIHSASNFTNTNNYFTSVPKNFMELLTNQEAQQWVSGWRLNADSVLWGGHKVFMVKPEEPFQPVKRATQL [E231R], for which the “area with substrate ENLYFQA” value came out at 0.117, the “area with substrate ENLYFQD” value came out at 0.0706, the “area with substrate ENLYFQF” value amounted to 0.0858 and the “area with substrate ENLYFQH” value was 0.0518. For the same variant, the “area with substrate ENLYFQI” value was determined as 0.0591, the “area with substrate ENLYFQK” value was 0.0882, the “area with substrate ENLYFQL” value stood at 0.0596 and the “area with substrate ENLYFQM” value came out at 0.0885. The “area with substrate ENLYFQP” value was determined as 0.0876, the “area with substrate ENLYFQR” value is 0.0534, the “area with substrate ENLYFQS” value was determined as 0.108 and the “area with substrate ENLYFQY” value came out at 0.0697.

With MGESLRKGPRDYNPISSSICHLTNESDGHTTSLYGIGFGPFIITNKHLFRRNNGTLVVQSLHGVFKVKDTTTLQQHLVDGRDMIIIRMPKDFPPFPQKLKFREPQREERICLVTTNFQTKSMSSMVSDTSCTFPSGDGIFWKHWIQTKDGQCGSPLVSTRDGFIVGIHSASNFTNTNNYFTSVPKNFMELLTNQEAQQWVSGWRLNADSVLWGGHKVFMVKPEEPFQPVKEATQL [F6R], the “area with substrate ENLYFQA” value came out at 0.0805, the “area with substrate ENLYFQH” value is 0.108, the “area with substrate ENLYFQL” value is 0.0686 and the “area with substrate ENLYFQN” value was determined as 0.0699. Also, the “area with substrate ENLYFQR” value is 0.0694, the “area with substrate ENLYFQS” value was found to be 0.104, the “area with substrate ENLYFQT” value was 0.0753 and the “area with substrate ENLYFQY” value was 0.0028.

Take MGESLFKGPRDYNPISSSICHLTNESDGHTTSLYGIGFGPFIITNKHLFRRNNGTLVVQSLHGVFKVKDTTTLQQHLVDGRDMIIIRMPKDFPPFPQKLKFREPQREERICLVTTNFQTKSMSSMVSDTSCTFPSGDGIFWKHWIQTKDGQCGSPLVSTRDGFIVGIHSASNFTNTNNYFTSVPKNFMELLTNQEAQQWVSGWRLEADSVLWGGHKVFMVKPEEPFQPVKEATQL [N206E]: the “area with substrate ENLYFQA” value was 0.0938, the “area with substrate ENLYFQC” value is 0.137, the “area with substrate ENLYFQG” value stood at 0.0973 and the “area with substrate ENLYFQH” value stood at 0.0868. The “area with substrate ENLYFQI” value came out at 0.0597, the “area with substrate ENLYFQK” value is 0.0641, the “area with substrate ENLYFQL” value came to 0.0647 and the “area with substrate ENLYFQN” value was 0.0857. Moreover, the “area with substrate ENLYFQP” value came out at 0.0721, the “area with substrate ENLYFQR” value was 0.0549 and the “area with substrate ENLYFQS” value was 0.124.

As to MGESLFKGPRDYNPISSSICHLTNESDGHTTSLYGIGFGPFIITNKHLFRRNNGTLVVQSLHGVFKVKDTTTLQQHLVDGRDMIIIRMPKDFPPFPQKLKFREPQREERICLVTTNFQTKSMSSMVSDTSCTFPSGDGIFWKHWIQTKDGQCGSPLVSTRDGTIVGIHSASNFTNTNNYFTSVPKNFMELLTNQEAQQWVSGWRLNADSVLWGGHKVFMVKPEEPFQPVKEATQL [F163T], the “area with substrate ENLYFQA” value was 0.0652, the “area with substrate ENLYFQG” value came to 0.101, the “area with substrate ENLYFQL” value amounted to 0.0612 and the “area with substrate ENLYFQR” value came to 0.0617. Further, the “area with substrate ENLYFQS” value was determined as 0.0977 and the “area with substrate ENLYFQT” value was found to be 0.0592.

With MGESLFKGPRDYNPISSSICHLTNESDGHTTSLYGIGFGPFIITNKHLFRRNNGTLVVQSLHKVFKVKDTTTLQQHLVDGRDMIIIRMPKDFPPFPQKLKFREPQREERICLVTTNFQTKSMSSMVSDTSCTFPSGDGIFWKHWIQTKDGQCGSPLVSTRDGFIVGIHSASNFTNTNNYFTSVPKNFMELLTNQEAQQWVSGWRLNADSVLWGGHKVFMVKPEEPFQPVKEATQL [G63K], the “area with substrate ENLYFQA” value was determined as 0.0918, the “area with substrate ENLYFQC” value came to 0.11, the “area with substrate ENLYFQL” value was 0.0527 and the “area with substrate ENLYFQM” value came out at 0.101. The “area with substrate ENLYFQP” value was 0.0268, the “area with substrate ENLYFQS” value came out at 0.0954, the “area with substrate ENLYFQV” value worked out at 0.0622 and the “area with substrate ENLYFQW” value is 0.076.

Take MGESLFKGPRDYNPISSSICHLTNESDGHTTSLYGIGFGPFIITNKHLFRRNNGTLVVQSLHGVFKVKDTTTLQQHLVDGRDMIIIRMPKDFPPFPQKLKFREPQREERICLVTTNFQTKSMSSMVSDTSCTFPSGDGIFWKHWIQTKDGQCGSPLVSTRDGFIVGIHSASNFTVTNNYFTSVPKNFMELLTNQEAQQWVSGWRLNADSVLWGGHKVFMVKPEEPFQPVKEATQL [N175V]: the “area with substrate ENLYFQA” value turned out to be 0.0576, the “area with substrate ENLYFQC” value is 0.0711, the “area with substrate ENLYFQE” value turned out to be 0.0549 and the “area with substrate ENLYFQF” value is 0.0743. Further, the “area with substrate ENLYFQG” value is 0.0898, the “area with substrate ENLYFQH” value amounted to 0.0562, the “area with substrate ENLYFQI” value stood at 0.0544 and the “area with substrate ENLYFQM” value is 0.0674. Also, the “area with substrate ENLYFQN” value is 0.0555, the “area with substrate ENLYFQP” value stood at 0.0585, the “area with substrate ENLYFQS” value is 0.0663 and the “area with substrate ENLYFQT” value amounted to 0.0563. The “area with substrate ENLYFQV” value stood at 0.0542 and the “area with substrate ENLYFQY” value worked out at 0.0576.

With MGESLFKGPRDYNPISSSICHLTNESDGHTTSLYGIGFGPFIITNKHLFRRNNGTLVVQSLHGVFKVKDTTTLQQHLVDGRDMIIIRMPKDFPPFPQKLKFREPQREERICLVTTNFQTKSMSSMVSDTSCTFPSGDGIFWKHWIQTKDGQCGSPLVSTRDGFIVGIHSASNFTNTNNYFTSVPKNFMELLTNQEAQQWVSGWRLNADSVLWGGHKVFMVCPEEPFQPVKEATQL [K221C], the “area with substrate ENLYFQA” value amounted to 0.103, the “area with substrate ENLYFQC” value came out at 0.115, the “area with substrate ENLYFQD” value came out at 0.0649 and the “area with substrate ENLYFQF” value stood at 0.0703. For the same variant, the “area with substrate ENLYFQI” value came to 0.0719, the “area with substrate ENLYFQK” value worked out at 0.0609, the “area with substrate ENLYFQL” value came to 0.0562 and the “area with substrate ENLYFQM” value was 0.0802. Moreover, the “area with substrate ENLYFQN” value is 0.0901, the “area with substrate ENLYFQP” value came out at 0.0612, the “area with substrate ENLYFQQ” value worked out at 0.065 and the “area with substrate ENLYFQR” value worked out at 0.0672. Besides, the “area with substrate ENLYFQS” value is 0.101, the “area with substrate ENLYFQV” value came out at 0.0643, the “area with substrate ENLYFQW” value turned out to be 0.0591 and the “area with substrate ENLYFQY” value was 0.0589.

On to MGESLFKGPRDYNPISSSICHLTNESDGHTTSLYGIGFGPFIITNKHLFRRNNGTLVVQSLHGVFKVKDTTTLQQHLVDGRDMIIIRMPKDFPPFPQKLKFREPQREERICLVTTNFQTKSMSSMVSDTSCTFPSGDGIFWKHWIQTKDGQCGSPLVSTRDGFIVGIHSASNFTNTNNYFTSVPWNFMELLTNQEAQQWVSGWRLNADSVLWGGHKVFMVKPEEPFQPVKEATQL [K185W], for which the “area with substrate ENLYFQA” value is 0.0852, the “area with substrate ENLYFQC” value worked out at 0.116, the “area with substrate ENLYFQD” value was 0.0714 and the “area with substrate ENLYFQE” value was 0.0626. The “area with substrate ENLYFQF” value was determined as 0.075, the “area with substrate ENLYFQG” value was 0.0721, the “area with substrate ENLYFQI” value was 0.053 and the “area with substrate ENLYFQK” value worked out at 0.0687. Also, the “area with substrate ENLYFQL” value came out at 0.0477, the “area with substrate ENLYFQM” value worked out at 0.109, the “area with substrate ENLYFQN” value was 0.0589 and the “area with substrate ENLYFQP” value turned out to be 0.0664. Also, the “area with substrate ENLYFQQ” value amounted to 0.0694, the “area with substrate ENLYFQR” value came out at 0.0689, the “area with substrate ENLYFQS” value stood at 0.098 and the “area with substrate ENLYFQT” value came to 0.059. Moreover, the “area with substrate ENLYFQV” value turned out to be 0.0563, the “area with substrate ENLYFQW” value came out at 0.0694 and the “area with substrate ENLYFQY” value came out at 0.0786.

Source of the values: the supplement of paper PMC12217912.
